Reference: patent publication US20260216175A1, “COMPLEMENT INHIBITION” (Apellis Pharmaceuticals, Inc., priority 2023, published 2026)

Each compound was assayed against C3 convertase (CVF:Bb) (Homo sapiens, UniProt P00751) (assay: biochemical).
For `COc1cc(C)c2[nH]ccc2c1CN1C[C@@H]2CC[C@H](C)N2C[C@@H]1c1ccc(C(=O)O)cc1`, the IC50 was 12.8 µM.
For `COc1cc(C)c2[nH]ccc2c1CN1CCCN(CC(F)(F)F)CC1c1ccc(-c2nn[nH]n2)cc1` (centres unmarked), the IC50 was 0.176 µM.
For `COc1cc(C)c2[nH]ccc2c1CN1CC2CCC(C(F)F)N2CC1c1ccc(C(=O)O)cc1` (centres unmarked), the IC50 was 0.493 µM.
`COc1cc(C)c2[nH]ccc2c1CN1C[C@@H]2CC[C@@H](C)N2CC1c1ccc(C(=O)O)cc1` (some centres unmarked) gave an IC50 of 2.47 µM.
Compound `COc1cc(C)c2[nH]ccc2c1CN1C[C@H]2C[C@@H](F)CN2CC1c1ccc(C(=O)O)cc1` (some centres unmarked) has an IC50 of 6.97 µM.
With `COc1cc(C)c2[nH]ccc2c1CN1CC[C@@H]2CCCN2CC1c1ccc(C(=O)O)cc1` (some centres unmarked) the IC50 was 6.98 µM.
Work on `COc1cc(C)c2[nH]ccc2c1CN1C[C@@H]2C[C@@H]3C[C@@H]3N2C[C@H]1c1ccc(C(=O)O)cc1` yielded an IC50 of 0.457 µM.
Work on `COc1cc([C@H]2CN(CC(F)F)CCN2Cc2c(OC)cc(C)c3[nH]ccc23)ccc1C(=O)O` yielded an IC50 of 7.02 µM.
With `COc1cc(C)c2[nH]ccc2c1CN1CCN(CCC(F)(F)F)C[C@@H]1c1ccc(C(=O)O)c(NC2CC2)c1` the IC50 was 17.2 µM.
Compound `COc1cc(C)c2[nH]ccc2c1CN1CCN(CCC(F)(F)F)C[C@H]1c1ccc(C(=O)O)c(NC2CC2)c1` has an IC50 of 0.234 µM.
With `CNc1cc([C@@H]2CN(CCC(F)(F)F)CCN2Cc2c(OC)cc(C)c3[nH]ccc23)ccc1C(=O)O` the IC50 was 0.0398 µM.
With `CNc1cc([C@H]2CN(CCC(F)(F)F)CCN2Cc2c(OC)cc(C)c3[nH]ccc23)ccc1C(=O)O` the IC50 was 38.6 µM.
`COc1cc(C)c2[nH]ccc2c1CN1CCN(CC(F)F)C[C@H]1c1ccc(C(=O)O)c(N2CCCCC2=O)c1` showed an IC50 of 1.05 µM.
For `COc1cc([C@@H]2CN(CCC(F)(F)F)CCN2Cc2c(OC)cc(C)c3[nH]ccc23)ccc1C(=O)O`, the IC50 was 0.267 µM.
For `COc1cc([C@H]2CN(CCC(F)(F)F)CCN2Cc2c(OC)cc(C)c3[nH]ccc23)ccc1C(=O)O`, the IC50 was 27.7 µM.
For `COc1cc(C)c2[nH]ccc2c1CN1CCN(CC(F)F)C[C@@H]1c1ccc(C(=O)O)c2c1CCCN2`, the IC50 was 15.1 µM.
`COc1cc(C)c2[nH]ccc2c1CN1CCN(CC(F)F)C[C@H]1c1ccc(C(=O)O)c2c1CCCN2` gave an IC50 of 0.166 µM.
Work on `COc1cc(C)c2[nH]ccc2c1CN1CCN(CC(F)F)C[C@H]1c1ccc(C(=O)O)c(N2CCCC2)c1` yielded an IC50 of 0.81 µM.
In the case of `COc1cc(C)c2[nH]ccc2c1CN1CCN(CC(F)F)CC1c1ccc(C(=O)O)c(N[C@H](C)C(F)(F)F)c1` (some centres unmarked), the IC50 is reported as 1.16 µM.
Work on `CNc1cc([C@@H]2CN3CCC[C@H]3CN2Cc2c(OC)cc(C)c3[nH]ccc23)ccc1C(=O)O` yielded an IC50 of 1.53 µM.
In the case of `COc1cc(C)c2[nH]ccc2c1CN1CCN(CC(F)F)C[C@H]1c1ccc(C(=O)O)c(NC2CC(F)(F)C2)c1`, the IC50 is reported as 0.808 µM.
With `COc1cc(C)c2[nH]ccc2c1CN1CCN(CC(F)F)C[C@@H]1c1ccc(C(=O)O)c(NC2CC(F)(F)C2)c1` the IC50 was 29.9 µM.
Compound `COc1cc(C)c2[nH]ccc2c1CN1CCN(CC(F)F)C[C@H]1c1ccc(C(=O)O)c(Nc2cnn(C)c2)c1` has an IC50 of 0.531 µM.
Work on `COc1cc(C)c2[nH]ccc2c1CN1CCN(CC(F)F)C[C@@H]1c1ccc(C(=O)O)c(Nc2cnn(C)c2)c1` yielded an IC50 of 9.24 µM.
`COc1cc(C)c2[nH]ccc2c1CN1CCN(CCC(F)(F)F)C[C@H]1c1ccc(C(=O)O)c(NCC2CC2)c1` was tested, and the IC50 was 0.461 µM.
`COc1cc(C)c2[nH]ccc2c1CN1CCN(CCC(F)(F)F)C[C@@H]1c1ccc(C(=O)O)c(NCC2CC2)c1` showed an IC50 of 34.9 µM.
`COc1cc(C)c2[nH]ccc2c1CN1CCN(CCC(F)(F)F)C[C@H]1c1ccc(C(=O)O)c(C#N)c1` showed an IC50 of 0.766 µM.
With `COc1cc(C)c2[nH]ccc2c1CN1CCN(CCC(F)(F)F)C[C@@H]1c1ccc(C(=O)O)c(C#N)c1` the IC50 was 54.9 µM.
With `COc1cc(C)c2[nH]ccc2c1CN1CCN(CC(F)F)C[C@H]1c1ccc(C(=O)O)c(NCC2CC2)c1` the IC50 was 0.767 µM.
`COc1cc(C)c2[nH]ccc2c1CN1CCN(CC(F)F)C[C@@H]1c1ccc(C(=O)O)c(NCC2CC2)c1` gave an IC50 of 40.9 µM.
In the case of `COc1cc(C)c2[nH]ccc2c1CN1CC(C)N(C)C[C@@H]1c1ccc(C(=O)O)cc1` (some centres unmarked), the IC50 is reported as 18.9 µM.
Compound `COc1cc(C)c2[nH]ccc2c1CN1CC(C)N(C)C[C@H]1c1ccc(C(=O)O)cc1` (some centres unmarked) has an IC50 of 1.76 µM.
Compound `COc1cc(C)c2[nH]ccc2c1CN1CCN(CC(F)F)C[C@@H]1c1ccc(C(=O)O)c(NC2CCC2)c1` has an IC50 of 57.1 µM.
With `COc1cc(C)c2[nH]ccc2c1CN1CCN(CC(F)F)C[C@H]1c1ccc(C(=O)O)c(NC2CCC2)c1` the IC50 was 0.601 µM.
With `COc1cc(C)c2[nH]ccc2c1CN1CCN(CC(F)F)C[C@H]1c1ccc(C(=O)O)c(NCC(F)(F)F)c1` the IC50 was 1.09 µM.
Compound `COc1cc(C)c2[nH]ccc2c1CN1CCN(CC(F)F)C[C@@H]1c1ccc(C(=O)O)c(NCC(F)(F)F)c1` has an IC50 of 77.6 µM.
`COc1cc(C)c2[nH]ccc2c1CN1CCN(CC(F)F)C[C@H]1c1ccc(C(=O)O)c(NCC2COC2)c1` showed an IC50 of 0.4 µM.
Work on `COc1cc(C)c2[nH]ccc2c1CN1CCN(CC(F)F)C[C@@H]1c1ccc(C(=O)O)c(NCC2COC2)c1` yielded an IC50 of 68.2 µM.
Compound `COc1cc(C)c2[nH]ccc2c1CN1CCN(C)C(C(F)(F)F)CC1c1ccc(C(=O)O)cc1` (centres unmarked) has an IC50 of 34.3 µM.
`COc1cc(C)c2[nH]ccc2c1CN1CCN(C)C(C(F)F)CC1c1ccc(C(=O)O)cc1` (centres unmarked) showed an IC50 of 9.29 µM.
In the case of `COc1cc(C)c2[nH]ccc2c1CN1CCN(CC(F)F)C[C@H]1c1ccc(C(=O)O)c(NC2CCOCC2)c1`, the IC50 is reported as 0.157 µM.
Work on `COc1cc(C)c2[nH]ccc2c1CN1CCN(CC(F)F)C[C@@H]1c1ccc(C(=O)O)c(NC2CCOCC2)c1` yielded an IC50 of 46.2 µM.
Compound `CCC(=O)Nc1cc([C@@H]2CN(CC(F)F)CCN2Cc2c(OC)cc(C)c3[nH]ccc23)ccc1C(=O)O` has an IC50 of 1.26 µM.
Compound `CCC(=O)Nc1cc([C@H]2CN(CC(F)F)CCN2Cc2c(OC)cc(C)c3[nH]ccc23)ccc1C(=O)O` has an IC50 of 118 µM.
Work on `COc1cc(C)c2[nH]ccc2c1CN1CCN(CCC(F)(F)F)C[C@H]1c1ccc(C(N)=O)c(N2CCCC2=O)c1` yielded an IC50 of 17.6 µM.
`COc1cc(C)c2[nH]ccc2c1CN1CCN(CCC(F)(F)F)C[C@H]1c1ccc(C(N)=O)c(N)n1` showed an IC50 of 37.5 µM.
`COc1cc(C)c2[nH]ccc2c1CN1CCN(CCC(F)(F)F)C[C@@H]1c1ccc(C(N)=O)c(N)n1` was tested, and the IC50 was 102 µM.
`COc1cc(C)c2[nH]ccc2c1CN1CCN(CCC(F)(F)F)C[C@H]1c1ccc(C(N)=O)c(N)c1` showed an IC50 of 3.86 µM.
Work on `COc1cc(C)c2[nH]ccc2c1CN1CCN(CCC(F)(F)F)C[C@@H]1c1ccc(C(N)=O)c(N)c1` yielded an IC50 of 119 µM.
`COc1cc(C)c2[nH]ccc2c1CN1CCN(CCC(F)(F)F)C[C@@H]1c1ccc(C(=O)O)c(N)n1` was tested, and the IC50 was 15.2 µM.
`COc1cc(C)c2[nH]ccc2c1CN1CCN(CCC(F)(F)F)C[C@H]1c1ccc(C(=O)O)c(N)n1` was tested, and the IC50 was 0.249 µM.
Work on `COc1cc(C)c2[nH]ccc2c1CN1C[C@@H]2CC(F)(F)CN2C[C@H]1c1ccc(C(=O)O)c(O)c1` yielded an IC50 of 25.2 µM.
Work on `COc1cc(C)c2[nH]ccc2c1CN1CCN(CCC(F)(F)F)C[C@H]1c1ccc(C(=O)O)c(N2CCCC2=O)c1` yielded an IC50 of 1.24 µM.
With `COc1cc(C)c2[nH]ccc2c1CN1CCN(CCC(F)(F)F)C[C@@H]1c1ccc(C(=O)O)c(N2CCCC2=O)c1` the IC50 was 7.03 µM.
`COc1cc(C)c2[nH]ccc2c1CN1CCN(CC(F)F)C[C@H]1c1ccc(C(=O)O)c2c1OCCN2` gave an IC50 of 0.148 µM.
`COc1cc(C)c2[nH]ccc2c1CN1CCN(CC(F)F)C[C@@H]1c1ccc(C(=O)O)c2c1OCCN2` showed an IC50 of 20.8 µM.
Work on `COc1cc(C)c2[nH]ccc2c1CN1CCN(CC(F)F)C[C@@H]1c1cnc(C(=O)O)c(N)c1` yielded an IC50 of 51.5 µM.
`COc1cc(C)c2[nH]ccc2c1CN1CCN(CC(F)F)C[C@H]1c1cnc(C(=O)O)c(N)c1` was tested, and the IC50 was 2.28 µM.
`COc1cc(C)c2[nH]ccc2c1CN1CCN(C)C(C)CC1c1ccc(C(=O)O)cc1` (centres unmarked) was tested, and the IC50 was 8.53 µM.
For `COc1cc(C)c2[nH]ccc2c1CN1CCN(CC(F)F)CC1c1ccc(C(=O)O)c2c1OCC(=O)N2` (centres unmarked), the IC50 was 0.989 µM.
In the case of `COc1cc(C)c2[nH]ccc2c1CN1C[C@@H]2CCCN2C[C@H]1c1ccc(C(=O)O)cc1`, the IC50 is reported as 1.18 µM.
`COc1cc(C)c2[nH]ccc2c1CN1CCN(C)C(=O)CC1c1ccc(C(=O)O)cc1` (centres unmarked) gave an IC50 of 34.2 µM.
Work on `CNc1cc(C2CN(CC(F)F)CCN2Cc2c(OC)cc(C)c3[nH]ccc23)ccc1C(=O)O` (centres unmarked) yielded an IC50 of 0.263 µM.
Work on `COc1cc(C)c2[nH]ccc2c1CN1CCN(CC(F)F)C[C@@H]1c1ccc(C(=O)O)c(Cl)c1` yielded an IC50 of 4.08 µM.
Compound `COc1cc(C)c2[nH]ccc2c1CN1CCN(CC(F)F)C[C@H]1c1ccc(C(=O)O)c(Cl)c1` has an IC50 of 0.497 µM.
For `CCNc1cc(C2CN(CC(F)F)CCN2Cc2c(OC)cc(C)c3[nH]ccc23)ccc1C(=O)O` (centres unmarked), the IC50 was 0.0827 µM.
`COc1cc(C)c2[nH]ccc2c1CN1CCN(CC(F)F)C[C@H]1c1ccc(C(=O)O)c(NC(C)=O)c1` was tested, and the IC50 was 0.153 µM.
In the case of `COc1cc(C)c2[nH]ccc2c1CN1CCN(CC(F)F)C[C@@H]1c1ccc(C(=O)O)c(NC(C)=O)c1`, the IC50 is reported as 13.2 µM.
`COc1cc(C)c2[nH]ccc2c1CN1CCN(CC(F)F)C[C@@H]1c1ccc(C(=O)O)c(O)c1` showed an IC50 of 4.2 µM.
`COc1cc(C)c2[nH]ccc2c1CN1CCN(C)CC[C@H]1c1ccc(C(=O)O)c(O)c1` was tested, and the IC50 was 0.0371 µM.
`COc1cc(C)c2[nH]ccc2c1CN1CCN(C)CC[C@@H]1c1ccc(C(=O)O)c(O)c1` showed an IC50 of 1.38 µM.
Compound `COc1cc(C)c2[nH]ccc2c1CN1CCN(S(C)(=O)=O)CCC1c1ccc(C(=O)O)cc1` (centres unmarked) has an IC50 of 21.3 µM.
`CCN1CC[C@@H](c2ccc(C(=O)O)cc2)N(Cc2c(OC)cc(C)c3[nH]ccc23)CC1` showed an IC50 of 0.149 µM.
Compound `COc1cc(C)c2[nH]ccc2c1CN1CCN(CC(F)F)C[C@H]1c1ccc(C(=O)O)c(NS(C)(=O)=O)c1` has an IC50 of 0.0817 µM.
Compound `COc1cc(C)c2[nH]ccc2c1CN1CCN(CC(F)F)C[C@@H]1c1ccc(C(=O)O)c(NS(C)(=O)=O)c1` has an IC50 of 16.3 µM.
Compound `COc1cc(C)c2[nH]ccc2c1CN1CCN(CCC(F)(F)F)C[C@H]1c1ccc(C(=O)O)c(N)c1` has an IC50 of 0.0125 µM.
`COc1cc(C)c2[nH]ccc2c1CN1CCN(CCC(F)(F)F)C[C@@H]1c1ccc(C(=O)O)c(N)c1` gave an IC50 of 10.2 µM.
For `COc1cc(C)c2[nH]ccc2c1CN1CCN(CC(F)F)C[C@@H]1c1ccc(C(=O)O)c(N)n1`, the IC50 was 20.4 µM.
`COc1cc(C)c2[nH]ccc2c1CN1CCN(CC(F)F)C[C@H]1c1ccc(C(=O)O)c(N)n1` was tested, and the IC50 was 0.453 µM.
`COc1cc(C)c2[nH]ccc2c1CN1CCN(CC(F)(F)F)C[C@H]1c1ccc(C(=O)O)c(N)c1` was tested, and the IC50 was 0.0364 µM.
For `COc1cc(C)c2[nH]ccc2c1CN1CCN(CC(F)(F)F)C[C@@H]1c1ccc(C(=O)O)c(N)c1`, the IC50 was 9.63 µM.
For `COc1cc(C)c2[nH]ccc2c1CN1CCN(CC(F)(F)F)C[C@H]1c1ccc(C(=O)O)c(O)c1`, the IC50 was 0.282 µM.
Work on `COc1cc(C)c2[nH]ccc2c1CN1CCN(CC(F)F)C[C@H]1c1ccc(C(=O)O)c(O)c1` yielded an IC50 of 0.202 µM.
